Data from PubChem BioAssay AID504333 (National Center for Advancing Translational Sciences (NCATS), 2011).
The campaign covered roughly 360,000 compounds. About 16,000 (4.4%) were called active. This list was built around the results that the source calls inconclusive (neither active nor inactive); the mix of calls is not that of the screen. The call rests on the fitted dose curve; in most records, active means well fitted inhibition curve with a large enough effect; inconclusive means small, poorly fitted or top-dose-only effect; inactive means no such curve, though single readings can be large or run the other way. Where the call is inconclusive, the potency comes from a doubtful curve fit.

Target: Bromodomain adjacent to zinc finger domain protein 2B (Homo sapiens) (UniProt Q9UIF8)
Sequence of UniProt Q9UIF8 (Q9UIF8 whole entry, looked up, the tested form may be a part): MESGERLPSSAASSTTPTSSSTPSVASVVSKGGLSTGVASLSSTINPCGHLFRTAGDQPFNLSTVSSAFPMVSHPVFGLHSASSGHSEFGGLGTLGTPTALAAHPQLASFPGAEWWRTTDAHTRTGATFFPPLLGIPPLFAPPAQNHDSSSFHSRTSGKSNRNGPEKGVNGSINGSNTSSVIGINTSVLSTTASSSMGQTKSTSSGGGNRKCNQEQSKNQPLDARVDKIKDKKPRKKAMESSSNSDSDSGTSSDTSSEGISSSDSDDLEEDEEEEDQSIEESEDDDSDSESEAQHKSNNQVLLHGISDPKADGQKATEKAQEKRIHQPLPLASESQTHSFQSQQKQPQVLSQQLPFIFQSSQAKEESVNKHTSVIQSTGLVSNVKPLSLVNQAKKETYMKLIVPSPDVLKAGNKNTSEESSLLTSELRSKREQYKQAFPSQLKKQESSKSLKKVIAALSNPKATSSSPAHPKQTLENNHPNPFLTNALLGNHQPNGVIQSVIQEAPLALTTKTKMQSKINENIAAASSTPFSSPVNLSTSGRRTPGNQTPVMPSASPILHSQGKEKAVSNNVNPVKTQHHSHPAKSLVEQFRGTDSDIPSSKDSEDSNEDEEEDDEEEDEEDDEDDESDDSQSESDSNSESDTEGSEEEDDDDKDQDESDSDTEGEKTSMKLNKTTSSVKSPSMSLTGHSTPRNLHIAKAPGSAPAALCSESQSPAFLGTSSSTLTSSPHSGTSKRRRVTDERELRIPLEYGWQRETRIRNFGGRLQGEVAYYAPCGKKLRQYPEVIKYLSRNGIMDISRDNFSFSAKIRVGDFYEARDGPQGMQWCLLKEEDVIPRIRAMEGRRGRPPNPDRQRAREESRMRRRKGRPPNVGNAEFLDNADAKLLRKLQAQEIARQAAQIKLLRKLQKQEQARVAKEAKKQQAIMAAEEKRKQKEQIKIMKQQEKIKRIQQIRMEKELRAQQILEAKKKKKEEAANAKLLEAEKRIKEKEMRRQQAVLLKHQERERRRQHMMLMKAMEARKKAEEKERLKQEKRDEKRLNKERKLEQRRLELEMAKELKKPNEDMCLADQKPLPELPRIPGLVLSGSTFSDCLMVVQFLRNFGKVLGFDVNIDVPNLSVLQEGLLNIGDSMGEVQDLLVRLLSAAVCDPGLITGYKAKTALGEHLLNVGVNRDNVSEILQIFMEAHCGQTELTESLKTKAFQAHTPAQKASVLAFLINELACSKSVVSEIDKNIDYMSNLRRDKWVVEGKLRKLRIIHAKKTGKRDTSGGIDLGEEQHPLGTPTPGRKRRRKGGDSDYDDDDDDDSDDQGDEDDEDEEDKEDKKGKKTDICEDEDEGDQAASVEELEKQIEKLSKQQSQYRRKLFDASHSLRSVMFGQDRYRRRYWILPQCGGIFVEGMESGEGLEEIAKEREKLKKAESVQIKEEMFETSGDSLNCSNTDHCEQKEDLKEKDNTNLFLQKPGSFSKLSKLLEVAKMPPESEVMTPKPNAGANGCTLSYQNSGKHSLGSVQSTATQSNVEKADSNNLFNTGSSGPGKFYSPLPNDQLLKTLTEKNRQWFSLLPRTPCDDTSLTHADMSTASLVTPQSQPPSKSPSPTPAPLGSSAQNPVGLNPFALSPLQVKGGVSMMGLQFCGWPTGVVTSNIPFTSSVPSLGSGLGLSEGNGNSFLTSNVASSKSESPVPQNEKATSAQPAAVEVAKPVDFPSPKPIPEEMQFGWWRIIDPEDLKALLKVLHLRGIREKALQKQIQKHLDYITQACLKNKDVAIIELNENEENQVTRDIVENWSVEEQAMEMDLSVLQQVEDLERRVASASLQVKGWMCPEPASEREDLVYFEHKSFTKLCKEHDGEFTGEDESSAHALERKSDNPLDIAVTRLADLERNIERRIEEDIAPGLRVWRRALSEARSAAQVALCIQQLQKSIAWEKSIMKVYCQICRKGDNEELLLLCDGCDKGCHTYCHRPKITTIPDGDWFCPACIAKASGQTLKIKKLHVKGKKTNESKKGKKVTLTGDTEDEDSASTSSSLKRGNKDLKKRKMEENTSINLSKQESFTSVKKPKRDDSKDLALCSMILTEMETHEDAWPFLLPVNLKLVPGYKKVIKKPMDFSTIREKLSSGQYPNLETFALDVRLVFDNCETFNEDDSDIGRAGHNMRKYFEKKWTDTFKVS
Experiment: qHTS Assay for Inhibitors of BAZ2B; further: nearly all actives have a fitted effect of over 60% in size
Conditions: AlphaScreen BAZ2B-H3K14Ac peptide displacement; series mostly up to 114 µM
In short: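 Inhibition is scored as reduced AlphaScreen emission. The BAZ2B/b-H3(5-23)K14Ac complex (50 nM each) in PBS pH 7.4, 0.01% Tween-20 meets compound (up to 110 uM) for 30 min at RT before bead addition.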
Potency means the concentration at half of the fitted maximal effect; tags describe the fitted curve by direction and shape.

Row | Compound | Potency
1 | COc1ccc2[nH]c3c(Cl)ncnc3c2c1 | inactive
2 | Cn1cccc1/C=N/N1CCN(Cc2ccc(Cl)cc2)CC1 | active: 31.6 µM
3 | N#CC1=C(N)Oc2c(oc(CO)cc2=O)C1c1ccsc1 (centres undefined) | active: 50.1 µM
4 | COc1ccc(CNC(=O)c2sc3nc4n(c(=O)c3c2C)CCCC4)cc1 | active: 44.7 µM
5 | Cc1sc2ccccc2[n+]1CC(=O)c1ccccc1 | inconclusive: 50.1 µM [inhibitor, partial curve]
6 | CCOC(=O)C(=NCCOC)NNc1cc(Cl)ccc1Cl | inconclusive: 89.1 µM [inhibitor, single point]
7 | COc1ccc(CCN2C(=O)CC(C(N)=O)SC2=Nc2ccccc2)cc1OC (centres undefined) | inconclusive: 79.4 µM [inhibitor, single point]
8 | O=C(N/N=C/c1sc(=O)n(Cc2ccc(Br)cc2)c1Cl)c1ccco1 | active: 89.1 µM
9 | O=C(C(NS(=O)(=O)c1cccc2nsnc12)c1ccccc1)N1CCN(c2ccccn2)CC1 (centres undefined) | inconclusive: 89.1 µM [inhibitor, single point]
10 | C[C@H](NC(=O)N1CCn2c1nc1ccccc12)C(=O)NCc1ccco1 | inconclusive: 89.1 µM [inhibitor, single point]
11 | O=C(C1CCC(=O)N(C2CC2)C1)N1CCC(Oc2cccc(F)c2)CC1 (centres undefined) | inactive
12 | COc1ccccc1NC(=O)c1cc2c(=O)n(C)c3ccccc3c2n1C | inactive
13 | Fc1ccc(/C=N/Nc2nn[nH]n2)cc1 | inconclusive: 79.4 µM [inhibitor, single point]
14 | COC(=O)c1cc(CN2C(=O)c3ccccc3C2=O)c(O)c([N+](=O)[O-])c1 | active: 56.2 µM
15 | CC(=O)N1CCN(c2ccc(NCc3ccco3)cc2)CC1 | inconclusive: 89.1 µM [inhibitor, single point]
16 | CCOc1cc(C2c3c(-c4cc(C)ccc4O)n[nH]c3C(=O)N2CCCOC(C)C)ccc1O (centres undefined) | inconclusive: 79.4 µM [inhibitor, single point]
17 | CCOC(=O)c1c(-c2ccccc2)csc1NC(=O)C(C)NCCCN1CCOCC1 (centres undefined) | active: 39.8 µM
18 | Cc1cc(C)cc(-n2cccc2/C=C2/C(=N)N3C(=NC2=O)SN=C3S(C)(=O)=O)c1 | active: 56.2 µM
19 | CCOC(=O)C1CCCN(S(=O)(=O)c2cc(-c3cc(C)no3)ccc2OC)C1 (centres undefined) | inactive
20 | CCOc1ccccc1CNC(=O)c1sc2ncccc2c1-n1cccc1 | inactive
21 | COC(=O)C1=C2SC(C)C(=O)N2C(N)=C(C#N)C1c1cc(OC)c(OC)c(OC)c1 (centres undefined) | inactive
22 | CCOc1ccc(-n2c(=S)sc3c(=O)[nH]c(SCC(=O)NCc4ccco4)nc32)cc1 | inconclusive: 50.1 µM [inhibitor, partial curve]
23 | COc1ccc(CNC(=O)C(Cc2ccccc2)n2cccc2)cc1 (centres undefined) | inconclusive: 50.1 µM [inhibitor, partial curve]
24 | COc1cccc(NCc2cccn2-c2nnc(N3CCC(C)CC3)s2)c1 | inactive
25 | CCc1c(O)nc(SCC(=O)Nc2ccccc2OC)n(-c2ccccc2C)c1=O | inconclusive: 79.4 µM [inhibitor, partial curve]

Row | Compound | Potency
26 | CCOc1c2ccc(C(=O)NCc3ccco3)cc2nn1CCOC | inactive
27 | COc1ccc(Cl)cc1NC(=O)c1c(NCc2ccc(C)o2)sc2c1CCC(C)C2 (centres undefined) | inactive
28 | CCN(CC)CCN(C(=O)c1ccc2c(c1)OCCO2)c1nc2ccc(C)cc2s1 | active: 35.5 µM
29 | Cc1ccc(O)c(N=Cc2sc3ccccc3c2Cl)c1 | inconclusive: 39.8 µM [inhibitor, partial curve]
30 | COc1ccc2nc(NC(=O)Cc3ccc(OC)c(S(=O)(=O)N4CCOCC4)c3)sc2c1 | inactive
31 | Cc1ccccc1NC(=O)Cn1c(=O)n(CCCC(=O)NCc2ccc3c(c2)OCO3)c(=O)c2ccccc21 | inactive
32 | COC(=O)c1ccc(-c2nc(O)c(C)s2)cc1 | inconclusive: 89.1 µM [inhibitor, single point]
33 | COc1ccccc1C1C2=C(N=C3SCC(=O)N31)c1ccccc1CC2 (centres undefined) | inconclusive: 89.1 µM [inhibitor, single point]
34 | COc1ccc(-n2c(Cc3cccn3C)nnc2SCC(=O)Nc2cccc(NC(C)=O)c2)cc1 | inconclusive: 50.1 µM [inhibitor, partial curve]
35 | CC(C)Cn1c(SCc2nc3ccccc3c(=O)[nH]2)nc2ccccc2c1=O | active: 89.1 µM
36 | COC(=O)c1ccc2c(c1)C(C)(C)C(/C=C/c1ccc(OC)c(OC)c1OC)=[N+]2C | inconclusive: 79.4 µM [inhibitor, single point]
37 | COc1cc(NC(=O)c2cccs2)c(OC)cc1NC(=O)Cc1ccccc1 | inactive
38 | COc1ccc(OC)c(CN2CCN(C(=O)c3cc(S(=O)(=O)Nc4ccccc4OC)ccc3C)CC2)c1 | inconclusive: 39.8 µM [inhibitor, partial curve]
39 | O=C(CCS(=O)(=O)c1cc2c(cc1Cl)NC(=O)CO2)NCc1ccc(Cl)cc1 | inactive
40 | CSc1ccc(C(=O)C2CCCN(Cc3cccc4nccnc34)C2)cc1 (centres undefined) | inconclusive: 79.4 µM [inhibitor, single point]
41 | CC1(C)CC(=O)C(C=NCCCN2CCOCC2)=C(O)C1 | inactive
42 | CCn1c2ccccc2c2cc(CN3CCN(Cc4ccc(Br)cc4)CC3)ccc21 | active: 25.1 µM
43 | Cn1ccc(C(=O)Nc2sc3c(c2C#N)CCC3)n1 | inconclusive: 79.4 µM [inhibitor, single point]
44 | CC1CCc2c(nc3ncnn3c2N2CC(C)OC(C)C2)C1 (centres undefined) | inactive
45 | CCN(CC)c1ccc(NC(=O)CCNC(=O)c2ccco2)cc1 | inconclusive: 89.1 µM [inhibitor, single point]
46 | Cc1cccc(/C=N\NC(=O)c2sccc2-n2cccc2)c1 | inconclusive: 100 µM [inhibitor, partial curve, poor fit]
47 | CS(=O)(=O)N1CCN(c2ccc([N+](=O)[O-])c(NCc3ccc(Cl)cc3)c2)CC1 | inconclusive: 89.1 µM [inhibitor, single point]
48 | COC(=O)c1ccc([C@@H]2Nc3c(OC)ccc(C)c3[C@@H]3C=CC[C@@H]32)cc1 | inconclusive: 44.7 µM [inhibitor, partial curve]
49 | Cc1cc(F)ccc1NC(=O)C(c1ccccc1)N1Cc2ccccc2C1=O (centres undefined) | inactive
50 | COc1ccc(C2/C(=C(/O)c3ccc(C)cc3)C(=O)C(=O)N2c2ccccn2)cc1OC (centres undefined) | inconclusive: 89.1 µM [inhibitor, single point]

Row | Compound | Potency
51 | CC(=O)c1ccc2noc(-c3cccc(C)c3)c2c1 | inactive
52 | COc1ccccc1-c1nnc2n1N=C(C)CS2 | inactive
53 | CCc1ccc(N2CC(C(=O)OCC(=O)Nc3ccc(C#N)cc3)CC2=O)cc1 (centres undefined) | inactive
54 | CCn1c(/C=C2/C(=O)N(C)c3ccccc32)nc2ccccc2c1=O | active: 35.5 µM
55 | CCCNC(=S)NCc1ccc(Cl)cc1 | inconclusive: 89.1 µM [inhibitor, single point]
56 | COc1cc([N+](=O)[O-])ccc1-c1ccc(/C=N/NC(=O)c2ccccc2O)o1 | inconclusive: 79.4 µM [inhibitor, partial curve]
57 | CCOC(=O)C1=C(C)NC2=C(C(=O)c3ccccc32)C1c1ccc(O)cc1 (centres undefined) | inconclusive: 39.8 µM [inhibitor, partial curve]
58 | O=C(NCc1ccco1)c1ccc(-c2ccc(Cl)cc2)o1 | inconclusive: 44.7 µM [inhibitor, partial curve]
59 | Cc1cc(C)cc(-n2ccnc2SCC(=O)Nc2cccc3ccccc23)c1 | active: 7.08 µM
60 | COc1ccc(OC)c(S(=O)(=O)n2nnc3ccccc32)c1 | inconclusive: 100 µM [inhibitor, single point]
61 | CC1CCN(C(=O)c2c(NC(=O)c3ccccc3Cl)sc3c2CCC(C(C)(C)C)C3)CC1 (centres undefined) | inconclusive: 56.2 µM [inhibitor, partial curve]
62 | Cn1c(=O)n(C)c2cc(/C=N/N=C3/NC(=O)C(CC(=O)O)S3)ccc21 (centres undefined) | active: 50.1 µM
63 | O=[N+]([O-])c1ccc(O)c(C2=NNC(c3ccccc3F)C2)c1 (centres undefined) | inactive
64 | COc1ccc2[nH]c3c(c2c1)CCNC3c1ccc([N+](=O)[O-])o1 (centres undefined) | inconclusive: 39.8 µM [inhibitor, partial curve]
65 | Cc1cccc(NC(=O)Cn2nc(-c3ccco3)ccc2=O)c1C | inactive
66 | CCCCNC(=S)N(C)N=C1CCC(c2ccccc2)CC1 (centres undefined) | inconclusive: 44.7 µM [inhibitor, partial curve]
67 | O=C(C1=C[C@H](c2csc3ccccc23)C[C@H](OCc2ccc(CO)cc2)O1)N1CCN(Cc2ccccc2)CC1 | inactive
68 | COCCNC(=O)/C(C#N)=C/c1c(N2CCN(c3ccc(OC)cc3)CC2)nc2c(C)cccn2c1=O | active: 39.8 µM
69 | O=C(NN1C(=O)c2ccc(-c3ccc4c(c3)C(=O)N(NC(=O)c3cccnc3)C4=O)cc2C1=O)c1cccnc1 | inconclusive: 39.8 µM [inhibitor, partial curve]
70 | COc1cc(C2C(C(=O)c3ccc(C)o3)=C(O)C(=O)N2CCc2ccccc2)ccc1O (centres undefined) | inconclusive: 44.7 µM [inhibitor, partial curve]
71 | Cc1ccc(CN2C(=O)C(O)(c3c(C)[nH]c4ccccc34)c3ccccc32)cc1 (centres undefined) | active: 44.7 µM
72 | COc1ccc(NC(=O)C2CCC(CNS(=O)(=O)c3cccc4nsnc34)CC2)cc1OC (centres undefined) | inactive
73 | Oc1ccccc1-c1nc(-c2cccs2)c(-c2cccs2)[nH]1 | inconclusive: 39.8 µM [inhibitor, partial curve]
74 | CC1=NN(C(N)=S)C(=O)C1N=Nc1ccccc1 (centres undefined) | inactive
